Some of the results follow.
How the values were obtained:
Experiment in all cases: glycan array binding signal (z-score within array); higher = stronger binding
Settings in all cases: glycan notation: IUPAC condensed, linker removed
GlcNAc(b1-3)Gal(b1-4)Glc = biological target: GlcNAc(b1-3)Gal(b1-4)Glc
In short: (§1)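 Columns mapping to the same glycan were averaged after glycan names were converted to IUPAC-condensed notation. The data come from 3228 arrays in the Consortium for Functional Glycomics database, limited to those with an available protein sequence. Binding is reported as a within-array Z-score averaged across arrays of one protein sequence and across linkers.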

[1] = biological target: GlcNAc(b1-3)Gal(b1-4)GlcNAc
In short: as §1

[2] = biological target: GlcNAc(b1-3)Gal(b1-4)GlcNAc(b1-3)Gal(b1-4)GlcNAc
In short: as §1

GlcNAc(b1-3)GalNAc = biological target: GlcNAc(b1-3)GalNAc
In short: as §1

[3] = biological target: GlcNAc(b1-3)[GlcNAc(b1-4)][GlcNAc(b1-6)]GlcNAc
In short: as §1

[4] = biological target: GlcNAc(b1-3)[GlcNAc(b1-6)]Gal(b1-4)GlcNAc
In short: as §1

[5] = biological target: GlcNAc(b1-3)[GlcNAc(b1-6)]GlcNAc
In short: as §1

[6] = biological target: GlcNAc(b1-4)Gal(b1-4)GlcNAc
In short: as §1

[7] = biological target: GlcNAc(b1-4)GlcNAc(b1-4)GlcNAc
In short: as §1

[8] = biological target: GlcNAc(b1-4)GlcNAc(b1-4)GlcNAc(b1-4)GlcNAc(b1-4)GlcNAc
In short: as §1

[9] = biological target: GlcNAc(b1-4)GlcNAc(b1-4)GlcNAc(b1-4)GlcNAc(b1-4)GlcNAc(b1-4)GlcNAc
In short: as §1

[10] = biological target: GlcNAc(b1-4)[GlcNAc(b1-6)]GalNAc
In short: as §1

[11] = biological target: GlcNAc(b1-6)Gal(b1-4)GlcNAc
In short: as §1

GlcNAc(b1-6)GalNAc = biological target: GlcNAc(b1-6)GalNAc
In short: as §1

Kdn(a2-3)Gal(b1-3)GlcNAc = biological target: Kdn(a2-3)Gal(b1-3)GlcNAc
In short: as §1

Kdn(a2-3)Gal(b1-4)GlcNAc = biological target: Kdn(a2-3)Gal(b1-4)GlcNAc
In short: as §1

[12] = biological target: Man(a1-2)Man(a1-2)Man(a1-3)Man
In short: as §1

[13] = biological target: Man(a1-2)Man(a1-2)Man(a1-3)[Man(a1-2)Man(a1-3)[Man(a1-2)Man(a1-6)]Man(a1-6)]Man(b1-4)GlcNAc(b1-4)GlcNAc
In short: as §1

[14] = biological target: Man(a1-2)Man(a1-2)Man(a1-3)[Man(a1-2)Man(a1-6)[Man(a1-3)]Man(a1-6)]Man(b1-4)GlcNAc(b1-4)GlcNAc
In short: as §1

[15] = biological target: Man(a1-2)Man(a1-2)Man(a1-6)[Man(a1-3)]Man
In short: as §1

Man(a1-2)Man(a1-3)Man = biological target: Man(a1-2)Man(a1-3)Man
In short: as §1

[16] = biological target: Man(a1-2)Man(a1-3)[Man(a1-2)Man(a1-6)]Man
In short: as §1

[17] = biological target: Man(a1-2)Man(a1-3)[Man(a1-3)[Man(a1-6)]Man(a1-6)]Man(b1-4)GlcNAc(b1-4)GlcNAc
In short: as §1

[18] = biological target: Man(a1-2)Man(a1-3)[Man(a1-6)]Man(a1-6)[Man(a1-2)Man(a1-3)]Man(b1-4)GlcNAc(b1-4)GlcNAc
In short: as §1

Man(a1-3)[Man(a1-6)]Man = biological target: Man(a1-3)[Man(a1-6)]Man
In short: as §1

[19] = biological target: Man(a1-3)[Man(a1-6)]Man(a1-6)[Man(a1-3)]Man(b1-4)GlcNAc(b1-4)GlcNAc
In short: as §1

[20] = biological target: Man(a1-3)[Man(a1-6)]Man(b1-4)GlcNAc(b1-4)GlcNAc
In short: as §1

Man(b1-4)GlcNAc = biological target: Man(b1-4)GlcNAc
In short: as §1

Neu5Ac(a2-3)Gal = biological target: Neu5Ac(a2-3)Gal
In short: as §1

[21] = biological target: Neu5Ac(a2-3)Gal(b1-3)GalNAc
In short: as §1

[22] = biological target: Neu5Ac(a2-3)Gal(b1-3)GalNAc(b1-3)Gal(a1-4)Gal(b1-4)Glc
In short: as §1

[23] = biological target: Neu5Ac(a2-3)Gal(b1-3)GalNAc(b1-4)[Neu5Ac(a2-3)]Gal(b1-4)Glc
In short: as §1

[24] = biological target: Neu5Ac(a2-3)Gal(b1-3)GalNAc6S
In short: as §1

[25] = biological target: Neu5Ac(a2-3)Gal(b1-3)GlcNAc
In short: as §1

[26] = biological target: Neu5Ac(a2-3)Gal(b1-3)GlcNAc(b1-3)Gal(b1-4)GlcNAc
In short: as §1

[27] = biological target: Neu5Ac(a2-3)Gal(b1-3)GlcNAc6S
In short: as §1

[28] = biological target: Neu5Ac(a2-3)Gal(b1-3)[Fuc(a1-4)]GlcNAc
In short: as §1

[29] = biological target: Neu5Ac(a2-3)Gal(b1-3)[Fuc(a1-4)]GlcNAc(b1-3)Gal(b1-4)[Fuc(a1-3)]GlcNAc
In short: as §1

[30] = biological target: Neu5Ac(a2-3)Gal(b1-3)[Neu5Ac(a2-3)Gal(b1-4)]GlcNAc
In short: as §1

[31] = biological target: Neu5Ac(a2-3)Gal(b1-3)[Neu5Ac(a2-6)]GalNAc
In short: as §1

B1: NakA (Mycobacterium tuberculosum) (protein)
chain: SVVKPTKVTVFSPDGGADNPGEADLAIDGNPATSWKTDIYTDPVPFPSFKNGVGLMLQLPQATVVGTVAIDVASTGTKVEIRSASTPTPATLEDTAVLTSATALRPGHNTISVEAAAPTSNLLVWISTLGTTDGKSQADISEITIYAASD
glycan array binding signal (z-score) (GlcNAc(b1-3)Gal(b1-4)Glc): -0.134 | glycan array binding signal (z-score) [1]: -0.606 | glycan array binding signal (z-score) [2]: -0.586 | glycan array binding signal (z-score) (GlcNAc(b1-3)GalNAc): -0.001 | glycan array binding signal (z-score) [3]: 0.569 | glycan array binding signal (z-score) [4]: -0.192 | glycan array binding signal (z-score) [5]: 0.162 | glycan array binding signal (z-score) [6]: -0.025 | glycan array binding signal (z-score) [7]: -0.309 | glycan array binding signal (z-score) [8]: 0.64 | glycan array binding signal (z-score) [9]: -0.197 | glycan array binding signal (z-score) [10]: 1.16 | glycan array binding signal (z-score) [11]: -0.407 | glycan array binding signal (z-score) (GlcNAc(b1-6)GalNAc): -0.466 | glycan array binding signal (z-score) (Kdn(a2-3)Gal(b1-3)GlcNAc): -0.419 | glycan array binding signal (z-score) (Kdn(a2-3)Gal(b1-4)GlcNAc): -0.507 | glycan array binding signal (z-score) [12]: -0.116 | glycan array binding signal (z-score) [13]: -0.445 | glycan array binding signal (z-score) [14]: -0.267 | glycan array binding signal (z-score) [15]: -0.119 | glycan array binding signal (z-score) (Man(a1-2)Man(a1-3)Man): -0.127 | glycan array binding signal (z-score) [16]: -0.307 | glycan array binding signal (z-score) [17]: -0.433 | glycan array binding signal (z-score) [18]: -0.255 | glycan array binding signal (z-score) (Man(a1-3)[Man(a1-6)]Man): -0.082 | glycan array binding signal (z-score) [19]: -0.475 | glycan array binding signal (z-score) [20]: -0.359 | glycan array binding signal (z-score) (Man(b1-4)GlcNAc): -0.48 | glycan array binding signal (z-score) (Neu5Ac(a2-3)Gal): -0.526 | glycan array binding signal (z-score) [21]: -0.515 | glycan array binding signal (z-score) [22]: -0.407 | glycan array binding signal (z-score) [23]: -0.597 | glycan array binding signal (z-score) [24]: -0.469 | glycan array binding signal (z-score) [25]: -0.369 | glycan array binding signal (z-score) [26]: -0.659 | glycan array binding signal (z-score) [27]: -0.604 | glycan array binding signal (z-score) [28]: -0.371 | glycan array binding signal (z-score) [29]: -0.309 | glycan array binding signal (z-score) [30]: -0.561 | glycan array binding signal (z-score) [31]: -0.54
